Results reported in PMC11707101.
These are yes or no findings as the source states them, for the method shown. In cells and extracts the contact can be indirect. Some binding calls cover weakened binding; strength is not graded here. For some of these results: Sequences can lack the tags named with a protein.

Sequences of proteins named here, by UniProt entry; tags and fusion partners are left off.
UniProt Q8CIG8: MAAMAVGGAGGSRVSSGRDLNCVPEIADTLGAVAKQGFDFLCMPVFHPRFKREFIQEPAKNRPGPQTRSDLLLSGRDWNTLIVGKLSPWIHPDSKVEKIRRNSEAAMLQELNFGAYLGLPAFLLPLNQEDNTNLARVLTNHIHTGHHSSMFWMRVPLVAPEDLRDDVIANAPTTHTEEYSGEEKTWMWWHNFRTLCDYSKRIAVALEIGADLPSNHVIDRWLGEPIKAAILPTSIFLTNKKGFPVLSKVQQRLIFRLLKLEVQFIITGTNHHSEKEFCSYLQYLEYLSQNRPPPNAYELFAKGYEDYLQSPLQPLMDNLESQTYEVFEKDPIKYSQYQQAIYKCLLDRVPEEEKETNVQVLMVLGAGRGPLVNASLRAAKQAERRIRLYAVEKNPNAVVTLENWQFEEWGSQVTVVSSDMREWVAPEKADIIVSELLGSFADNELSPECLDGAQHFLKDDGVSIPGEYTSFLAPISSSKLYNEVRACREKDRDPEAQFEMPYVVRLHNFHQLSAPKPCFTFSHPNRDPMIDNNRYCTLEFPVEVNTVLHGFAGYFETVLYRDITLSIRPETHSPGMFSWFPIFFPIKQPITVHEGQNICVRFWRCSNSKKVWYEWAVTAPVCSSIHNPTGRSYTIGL
UniProt Q13263: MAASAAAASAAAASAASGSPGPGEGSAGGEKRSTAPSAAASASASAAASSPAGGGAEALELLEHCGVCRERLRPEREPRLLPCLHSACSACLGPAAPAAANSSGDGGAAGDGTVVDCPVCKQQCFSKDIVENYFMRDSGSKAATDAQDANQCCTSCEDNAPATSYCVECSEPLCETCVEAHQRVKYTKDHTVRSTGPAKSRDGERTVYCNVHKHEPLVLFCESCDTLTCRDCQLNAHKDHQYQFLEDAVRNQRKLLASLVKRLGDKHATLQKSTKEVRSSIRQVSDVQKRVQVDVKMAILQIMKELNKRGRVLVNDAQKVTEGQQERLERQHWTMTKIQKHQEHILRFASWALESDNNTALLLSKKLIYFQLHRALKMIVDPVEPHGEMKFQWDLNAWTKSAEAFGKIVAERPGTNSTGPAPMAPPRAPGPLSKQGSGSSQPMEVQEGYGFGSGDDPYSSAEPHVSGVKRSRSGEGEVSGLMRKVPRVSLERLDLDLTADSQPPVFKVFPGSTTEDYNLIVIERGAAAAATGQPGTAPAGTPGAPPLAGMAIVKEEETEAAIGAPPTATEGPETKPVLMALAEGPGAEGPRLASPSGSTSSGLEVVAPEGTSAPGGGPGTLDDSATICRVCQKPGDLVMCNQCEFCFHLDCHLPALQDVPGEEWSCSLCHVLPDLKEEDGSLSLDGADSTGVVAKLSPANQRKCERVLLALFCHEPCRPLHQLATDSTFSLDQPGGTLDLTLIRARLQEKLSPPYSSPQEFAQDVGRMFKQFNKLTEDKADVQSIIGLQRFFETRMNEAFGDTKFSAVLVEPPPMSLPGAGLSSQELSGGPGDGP
UniProt Q14258: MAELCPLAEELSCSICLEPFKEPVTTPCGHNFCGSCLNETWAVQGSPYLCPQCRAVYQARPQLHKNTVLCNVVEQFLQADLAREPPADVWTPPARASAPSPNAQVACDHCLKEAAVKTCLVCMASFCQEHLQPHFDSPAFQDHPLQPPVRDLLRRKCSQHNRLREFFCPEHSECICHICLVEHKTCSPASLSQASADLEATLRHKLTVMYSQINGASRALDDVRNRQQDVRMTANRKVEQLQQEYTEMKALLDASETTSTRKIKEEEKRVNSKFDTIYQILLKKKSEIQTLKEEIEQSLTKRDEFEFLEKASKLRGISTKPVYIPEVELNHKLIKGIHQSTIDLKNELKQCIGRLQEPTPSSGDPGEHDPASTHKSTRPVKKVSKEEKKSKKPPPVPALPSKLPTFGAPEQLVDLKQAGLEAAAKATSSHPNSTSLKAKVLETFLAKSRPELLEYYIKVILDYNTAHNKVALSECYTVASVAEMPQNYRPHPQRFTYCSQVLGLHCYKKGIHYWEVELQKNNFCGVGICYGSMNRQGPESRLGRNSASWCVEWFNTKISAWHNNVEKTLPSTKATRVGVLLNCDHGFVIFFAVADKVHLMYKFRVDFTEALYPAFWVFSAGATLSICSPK
UniProt P54578: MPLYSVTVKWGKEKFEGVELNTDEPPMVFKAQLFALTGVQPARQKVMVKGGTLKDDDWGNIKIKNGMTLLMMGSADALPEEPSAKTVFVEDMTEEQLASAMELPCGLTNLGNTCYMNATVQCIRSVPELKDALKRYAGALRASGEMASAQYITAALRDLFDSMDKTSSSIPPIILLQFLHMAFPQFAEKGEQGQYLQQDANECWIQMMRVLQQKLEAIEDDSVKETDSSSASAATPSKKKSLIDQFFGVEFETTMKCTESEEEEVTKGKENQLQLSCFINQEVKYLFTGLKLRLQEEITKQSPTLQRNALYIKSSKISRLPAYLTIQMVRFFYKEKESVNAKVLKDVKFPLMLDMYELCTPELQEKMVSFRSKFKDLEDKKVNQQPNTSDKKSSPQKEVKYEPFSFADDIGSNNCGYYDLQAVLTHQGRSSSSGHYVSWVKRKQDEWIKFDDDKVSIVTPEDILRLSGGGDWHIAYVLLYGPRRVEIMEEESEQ
UniProt O14744: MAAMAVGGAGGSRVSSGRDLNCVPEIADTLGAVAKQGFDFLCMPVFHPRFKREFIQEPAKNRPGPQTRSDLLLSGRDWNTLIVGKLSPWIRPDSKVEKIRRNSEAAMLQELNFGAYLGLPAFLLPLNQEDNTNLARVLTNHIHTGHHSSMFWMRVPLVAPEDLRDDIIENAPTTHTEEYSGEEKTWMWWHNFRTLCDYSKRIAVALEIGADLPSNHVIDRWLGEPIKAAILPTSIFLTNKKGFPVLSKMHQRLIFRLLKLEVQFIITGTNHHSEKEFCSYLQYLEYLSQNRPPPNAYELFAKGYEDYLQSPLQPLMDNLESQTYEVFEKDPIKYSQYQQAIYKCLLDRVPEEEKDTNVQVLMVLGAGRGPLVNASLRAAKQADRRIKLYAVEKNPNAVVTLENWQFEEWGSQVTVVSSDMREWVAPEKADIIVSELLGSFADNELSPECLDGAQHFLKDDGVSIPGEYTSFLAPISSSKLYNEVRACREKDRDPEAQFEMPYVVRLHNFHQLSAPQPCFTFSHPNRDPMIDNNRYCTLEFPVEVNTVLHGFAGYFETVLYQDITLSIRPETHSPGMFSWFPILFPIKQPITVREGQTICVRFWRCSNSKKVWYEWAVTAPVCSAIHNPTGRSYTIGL

Legend:
[1] = target: Prmt5, endogenous in MC38 cells (mouse (endogenous in MC38)) (UniProt Q8CIG8); test: co-IP; endogenous proteins; lysates of HCT116 or MC38 cells immunoprecipitated with antibodies against the indicated proteins, immunoblot
Myc-Prmt5 = Myc-Prmt5 (UniProt Q8CIG8); test: co-IP; both partners exogenous, coexpressed in HCT116 or MC38 cells; immunoprecipitation by the tag, Western blot
GST-ALKBH5 (human) = GST-ALKBH5 (human) (UniProt Q6P6C2); test: pull-down; GST-fused ALKBH5 incubated with HEK293T cell lysates; bound proteins by Western blot; GST as control; only the target purified
[2] = target: AlkB homologue 5 (ALKBH5), endogenous in HCT116 cells (human (endogenous in HCT116)) (UniProt Q6P6C2); test: co-IP; PRMT5 overexpressed in HCT116 cells; immunoprecipitation with an anti-ALKBH5 antibody
[3] = target: TRIM28 in HCT116 cells (human (endogenous in HCT116)) (UniProt Q13263); test: co-IP; in HCT116 and MC38 cells (Fig. S3G and H); bait and whether endogenous not stated
[4] = target: TRIM25 in HCT116 cells (human (endogenous in HCT116)) (UniProt Q14258); test: as above
[5] = target: USP14 in HCT116 cells (human (endogenous in HCT116)) (UniProt P54578); test: as above
[6] = target: T1, Flag-ALKBH5-R316K (human) (UniProt Q6P6C2); test: co-IP; IP of Flag-ALKBH5 from HCT116 cells, blot for TRIM28; cells with or without coexpressed PRMT5, shCtrl or shPRMT5, DMSO or GSK595; ALKBH5-WT against ALKBH5-R316K cells
T1 sequence: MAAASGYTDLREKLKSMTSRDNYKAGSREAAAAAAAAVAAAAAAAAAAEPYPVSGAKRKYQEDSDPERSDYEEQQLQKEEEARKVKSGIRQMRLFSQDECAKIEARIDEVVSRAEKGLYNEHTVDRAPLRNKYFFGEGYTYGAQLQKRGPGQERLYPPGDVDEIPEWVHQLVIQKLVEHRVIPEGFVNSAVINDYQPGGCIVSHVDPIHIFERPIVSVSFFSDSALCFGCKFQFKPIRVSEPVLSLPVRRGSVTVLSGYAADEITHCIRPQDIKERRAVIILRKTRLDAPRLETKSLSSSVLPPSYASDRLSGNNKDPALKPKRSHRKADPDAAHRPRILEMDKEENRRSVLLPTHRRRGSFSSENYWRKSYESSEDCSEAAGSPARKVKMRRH

Flag-ALKBH5 (human) [7] = target: Flag-ALKBH5 (human) (UniProt Q6P6C2); test: as above
Flag-ALKBH5 (human) [8] = target: Flag-ALKBH5 (human) (UniProt Q6P6C2); test: co-IP; both partners exogenous, coexpressed in HCT116 or MC38 cells; immunoprecipitation by the tag, Western blot

Alkbh5, endogenous in MC38 cells (from UniProt Q3TSG4 1-395) (enzyme)
binding [1]: binds

Flag-Alkbh5 (from UniProt Q3TSG4 1-395) (enzyme)
binding (Myc-Prmt5): binds

PRMT5 in HEK293T cell lysates (from UniProt O14744 1-637) (enzyme)
binding (GST-ALKBH5 (human)): binds

PRMT5 overexpressed in HCT116 cells (from UniProt O14744 1-637) (enzyme)
binding [2]: binds

Protein arginine methyltransferase 5 (PRMT5), endogenous in HCT116 cells (from UniProt O14744 1-637) (enzyme)
binding [3]: binds
binding [4]: no binding
binding [5]: no binding

TRIM28 in HCT116 cells (from UniProt Q13263 1-835) (enzyme)
binding [6]: binds
binding (Flag-ALKBH5 (human) [7]): binds

exogenous TRIM28 in HCT116 cells (from UniProt Q13263 1-835) (enzyme)
binding (Flag-ALKBH5 (human) [8]): binds
